Over roughly 81,000 sequences, “one-hybrid fitness for binding parS DNA” has its median near -0.17; the highest 2% begin near 0.51. Some of the results follow.
B1: Caulobacter ParB omega fusion; a variant is named by its letters at X, in order, B8GW30 (parent)
chain: MESVVVGEPGMSEGRRGLGRGLSALLGEVDAAPAQAPGEQLGGSREAPIEILQRNPDQPRRTFREEDLEDLSNSIREKGVLQPILVRPSPDTAGEYQIVAGERAWRAAQRAGLKTVPIMVRELDDLAVLEIGIIENVQRADLNVLEEALSYKVLMEKFERTQENIAQTIGKSXSHVANXMRLLXLPDEVQSYLVSGELTAXHARAIAAAADPVALAKQIIEGGLSVRETEALARKAPNLSAGKSKGGRPPRVKDTDTQALESDLSSVLGLDVSIDHRGSTGTLTITYATLEQLDDLCNRLTRGI

Variants of: B1
Test: one-hybrid fitness for binding parS DNA (scaled: cognate 1, non-cognate 0); higher = stronger binding
Conditions: with parS DNA site
In short: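 Bacterial one-hybrid selection in E. coli USO rpoZ- hisB- pyrF- with a HIS3 reporter carrying the site 19 bp from the promoter, screening Caulobacter ParB libraries with four specificity codons randomised (NNS). Cells grew 48 hours at 37°C on M9-minus-histidine plus 0.1 mM IPTG and 5 mM 3-AT. Plasmids before and after selection were Illumina-sequenced, three replicate libraries pooled, and variants under 10 reads dropped. Fitness is the log change in variant-to-wild-type read ratio, rescaled to cognate 1, non-cognate 0.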

Row | Variant | one-hybrid fitness for binding parS DNA
1 | DLPF | ≤ 0.2
2 | KLYV | ≤ 0.2
3 | GMQR | ≤ 0.2
4 | TLYN | ≤ 0.2
5 | EAAA | ≤ 0.2
6 | EAGL | ≤ 0.2
7 | IDSF | ≤ 0.2
8 | MDPG | ≤ 0.2
9 | HVMY | ≤ 0.2
10 | PAAV | ≤ 0.2
11 | MWNG | ≤ 0.2
12 | KQHG | ≤ 0.2
13 | VETS | ≤ 0.2
14 | KQMT | ≤ 0.2
15 | LTRY | ≤ 0.2
16 | QCYY | ≤ 0.2
17 | YTVM | ≤ 0.2
18 | YSSS | ≤ 0.2
19 | ICTL | ≤ 0.2
20 | IKIM | 0.402
21 | VWKG | ≤ 0.2
22 | TLCW | ≤ 0.2
23 | LEKS | ≤ 0.2
24 | MIWS | ≤ 0.2

Row | Variant | one-hybrid fitness for binding parS DNA
25 | LKLC | ≤ 0.2
26 | YLLD | ≤ 0.2
27 | AYKC | ≤ 0.2
28 | FLWC | ≤ 0.2
29 | SQMS | ≤ 0.2
30 | MKSM | ≤ 0.2
31 | TGMS | ≤ 0.2
32 | SDVV | ≤ 0.2
33 | LCHT | ≤ 0.2
34 | RMQK | 0.211
35 | PMAV | ≤ 0.2
36 | PQMG | ≤ 0.2
37 | ACTW | ≤ 0.2
38 | VPQR | ≤ 0.2
39 | QHHN | ≤ 0.2
40 | MAYS | ≤ 0.2
41 | VRET | ≤ 0.2
42 | KSYC | ≤ 0.2
43 | QTRH | ≤ 0.2
44 | LALS | ≤ 0.2
45 | TPQI | ≤ 0.2
46 | NSGS | ≤ 0.2
47 | RWPI | ≤ 0.2
48 | KVHD | ≤ 0.2

Row | Variant | one-hybrid fitness for binding parS DNA
49 | PWCG | ≤ 0.2
50 | FPGR | ≤ 0.2
51 | SCHM | ≤ 0.2
52 | KDLR | ≤ 0.2
53 | TTDL | ≤ 0.2
54 | HIKY | ≤ 0.2
55 | FVQR | ≤ 0.2
56 | RPEA | ≤ 0.2
57 | HKMT | ≤ 0.2
58 | FLWR | ≤ 0.2
59 | YGTP | ≤ 0.2
60 | LNMW | ≤ 0.2
61 | QPVI | ≤ 0.2
62 | RGHF | ≤ 0.2
63 | GTDG | ≤ 0.2
64 | NTYG | ≤ 0.2
65 | CWTG | ≤ 0.2
66 | FWTS | ≤ 0.2
67 | TTAC | ≤ 0.2
68 | PHQC | ≤ 0.2
69 | QNIY | ≤ 0.2
70 | MCER | ≤ 0.2
71 | PSHT | ≤ 0.2
72 | TAFR | ≤ 0.2

Row | Variant | one-hybrid fitness for binding parS DNA
73 | WNFG | ≤ 0.2
74 | ENYA | ≤ 0.2
75 | NKHA | ≤ 0.2
76 | KLVG | ≤ 0.2
77 | QEWR | ≤ 0.2
78 | LAHG | ≤ 0.2
79 | TTCA | ≤ 0.2
80 | VVLY | ≤ 0.2
81 | SFTV | ≤ 0.2
82 | RFSN | 0.377
83 | AHRL | ≤ 0.2
84 | IETL | ≤ 0.2
85 | RSCL | ≤ 0.2
86 | RGHN | ≤ 0.2
87 | YIMG | ≤ 0.2
88 | PSRW | ≤ 0.2
89 | HVAE | ≤ 0.2
90 | DIMI | ≤ 0.2
91 | CGPT | ≤ 0.2
92 | DCAG | ≤ 0.2
93 | REHF | ≤ 0.2
94 | QHKI | ≤ 0.2
95 | RVPA | 0.324
96 | NMDG | ≤ 0.2

Row | Variant | one-hybrid fitness for binding parS DNA
97 | LGPT | ≤ 0.2
98 | PENG | ≤ 0.2
99 | WTFT | ≤ 0.2
100 | PNRY | ≤ 0.2
101 | IWVG | ≤ 0.2
102 | NHHE | ≤ 0.2
103 | HVRY | ≤ 0.2
104 | SIDA | ≤ 0.2
105 | SHHQ | ≤ 0.2
106 | YHRI | ≤ 0.2
107 | TLMR | ≤ 0.2
108 | ALAQ | ≤ 0.2
109 | QRDK | ≤ 0.2
110 | RMKG | 0.929
111 | QSNW | ≤ 0.2
112 | HRYR | ≤ 0.2
113 | LTHQ | ≤ 0.2
114 | EPSV | ≤ 0.2
115 | LKIF | ≤ 0.2
116 | YANS | ≤ 0.2
117 | KEIG | ≤ 0.2
118 | ATSR | ≤ 0.2
119 | TEIV | ≤ 0.2
120 | YLYS | ≤ 0.2

Row | Variant | one-hybrid fitness for binding parS DNA
121 | SNAF | ≤ 0.2
122 | QPEV | ≤ 0.2
123 | GNMS | ≤ 0.2
124 | ARLM | ≤ 0.2
125 | SEKA | ≤ 0.2
126 | TEPC | ≤ 0.2
127 | DLNE | ≤ 0.2
128 | DQGG | ≤ 0.2
129 | QRCM | ≤ 0.2
130 | DWTD | ≤ 0.2
131 | QNYK | ≤ 0.2
132 | AGVI | ≤ 0.2
133 | EIAG | ≤ 0.2
134 | YFDL | ≤ 0.2
135 | DRSE | ≤ 0.2
136 | RVKI | ≤ 0.2
137 | ATMI | ≤ 0.2
138 | QSRN | ≤ 0.2
139 | GSRK | ≤ 0.2
140 | APDK | ≤ 0.2
141 | KEYD | ≤ 0.2
142 | HCAS | ≤ 0.2
143 | MVCA | ≤ 0.2
144 | NTET | ≤ 0.2

Row | Variant | one-hybrid fitness for binding parS DNA
145 | PARM | ≤ 0.2
146 | HRYG | 0.269
147 | HDDS | ≤ 0.2
148 | RLNM | 0.362
149 | GQFL | ≤ 0.2
150 | RPTV | ≤ 0.2
151 | RRVM | ≤ 0.2
152 | VPLG | ≤ 0.2
153 | VPRC | ≤ 0.2
154 | GEAC | ≤ 0.2
155 | RNED | ≤ 0.2
156 | RGTG | 0.78
157 | VNAG | ≤ 0.2
158 | VTTQ | ≤ 0.2
159 | GCIL | ≤ 0.2
160 | STIW | ≤ 0.2
161 | RMKF | 0.439
162 | SCYV | ≤ 0.2
163 | TTAP | ≤ 0.2
164 | RVDL | ≤ 0.2
165 | PVTN | ≤ 0.2
166 | QQMM | ≤ 0.2
167 | AQNN | ≤ 0.2
168 | TLRD | ≤ 0.2

Row | Variant | one-hybrid fitness for binding parS DNA
169 | HICT | ≤ 0.2
170 | WHHS | ≤ 0.2
171 | QQIS | ≤ 0.2
172 | ECRV | ≤ 0.2
173 | NPLS | ≤ 0.2
174 | HCKN | ≤ 0.2
175 | NGRR | ≤ 0.2
176 | WQKF | ≤ 0.2
177 | SHIL | ≤ 0.2
178 | SNHG | ≤ 0.2
179 | GPQT | ≤ 0.2
180 | GFTL | ≤ 0.2
181 | TIYN | ≤ 0.2
182 | RYQA | 0.562
183 | SCYY | ≤ 0.2
184 | KLYG | ≤ 0.2
185 | YNKE | ≤ 0.2
186 | RSKM | 0.378
187 | HPPR | ≤ 0.2
188 | EFDS | ≤ 0.2
189 | AAQR | ≤ 0.2
190 | RKWH | ≤ 0.2
191 | CQAG | ≤ 0.2
192 | KQRF | ≤ 0.2

Row | Variant | one-hybrid fitness for binding parS DNA
193 | KKMG | ≤ 0.2
194 | KNVS | ≤ 0.2
195 | LKVN | ≤ 0.2
196 | WKRR | ≤ 0.2
197 | APKN | ≤ 0.2
198 | RGNH | ≤ 0.2
199 | FMYT | ≤ 0.2
200 | TMYT | ≤ 0.2
201 | EFEK | ≤ 0.2
202 | NKAG | ≤ 0.2
203 | ADFS | ≤ 0.2
204 | TIGS | ≤ 0.2
205 | QMCS | ≤ 0.2
206 | NAQP | ≤ 0.2
207 | TGDE | ≤ 0.2
208 | QWWR | ≤ 0.2
209 | LRAN | ≤ 0.2
210 | TPVN | ≤ 0.2
211 | RQEY | 0.353
212 | AFPW | ≤ 0.2
213 | QRWY | ≤ 0.2
214 | LVHL | ≤ 0.2
215 | YIHG | ≤ 0.2
216 | WPSC | ≤ 0.2

Row | Variant | one-hybrid fitness for binding parS DNA
217 | RRTF | ≤ 0.2
218 | ADCY | ≤ 0.2
219 | RGNL | ≤ 0.2
220 | KTAI | ≤ 0.2
221 | MNPR | ≤ 0.2
222 | NRSW | ≤ 0.2
223 | SWSF | ≤ 0.2
224 | ERDS | ≤ 0.2
225 | SSMC | ≤ 0.2
226 | PKAS | ≤ 0.2
227 | QITT | ≤ 0.2
228 | NGHS | ≤ 0.2
229 | RNGM | ≤ 0.2
230 | VVRL | ≤ 0.2
231 | KDHP | ≤ 0.2
232 | MTCR | ≤ 0.2
233 | AHGW | ≤ 0.2
234 | LSYN | ≤ 0.2
235 | HGHI | ≤ 0.2
236 | ACLL | ≤ 0.2
237 | LAIH | ≤ 0.2
238 | PQAN | ≤ 0.2
239 | INSI | ≤ 0.2
240 | RLHV | ≤ 0.2

Row | Variant | one-hybrid fitness for binding parS DNA
241 | QFMT | ≤ 0.2
242 | TNCR | ≤ 0.2
243 | PHYC | ≤ 0.2
244 | RVAS | 1.01
245 | MGDY | ≤ 0.2
246 | YLRC | ≤ 0.2
247 | MAWF | ≤ 0.2
248 | MRQE | ≤ 0.2
249 | YEEG | ≤ 0.2
250 | VEKC | ≤ 0.2
251 | VPNY | ≤ 0.2
252 | KAKD | ≤ 0.2
253 | LNWR | ≤ 0.2
254 | HTQS | ≤ 0.2
255 | YVFG | ≤ 0.2
256 | GHVG | ≤ 0.2
257 | HYCF | ≤ 0.2
258 | EGHE | ≤ 0.2
259 | CREK | ≤ 0.2
260 | EAIW | ≤ 0.2
261 | PKLV | ≤ 0.2
262 | SRHM | ≤ 0.2
263 | CTKG | ≤ 0.2
264 | RFYY | 0.383

Row | Variant | one-hybrid fitness for binding parS DNA
265 | CSKM | ≤ 0.2
266 | TDRN | ≤ 0.2
267 | TSKK | ≤ 0.2
268 | CLGR | ≤ 0.2
269 | QFSI | ≤ 0.2
270 | PITE | ≤ 0.2
271 | WQAT | ≤ 0.2
272 | AKKG | ≤ 0.2
273 | TVHN | ≤ 0.2
274 | SSYV | ≤ 0.2
275 | DQRA | ≤ 0.2
276 | SSMG | ≤ 0.2
277 | IMMR | ≤ 0.2
278 | IPMS | ≤ 0.2
279 | HIRQ | ≤ 0.2
280 | QYRK | ≤ 0.2
281 | SVQI | ≤ 0.2
282 | RKVL | ≤ 0.2
283 | WWPS | ≤ 0.2
284 | GHMR | ≤ 0.2
285 | DCWG | ≤ 0.2
286 | RKGS | 0.833
287 | LNHM | ≤ 0.2
288 | YTAH | ≤ 0.2

Row | Variant | one-hybrid fitness for binding parS DNA
289 | EEAT | ≤ 0.2
290 | MARH | ≤ 0.2
291 | TTYR | ≤ 0.2
292 | WDNV | ≤ 0.2
293 | STTM | ≤ 0.2
294 | ERSE | ≤ 0.2
295 | RGDF | ≤ 0.2
296 | EKHR | ≤ 0.2
297 | RKHL | ≤ 0.2
298 | NDSY | ≤ 0.2
299 | DNGR | ≤ 0.2
300 | RLYG | 1.03
301 | DDYC | ≤ 0.2
302 | TDIR | ≤ 0.2
303 | TSDW | ≤ 0.2
304 | HCKR | ≤ 0.2
305 | HSLG | ≤ 0.2
306 | QTTA | ≤ 0.2

Source: a collection of fitness landscapes (doi:10.1016/j.celrep.2020.107928)
